Reference: the supplement of paper PMC11417369
± gives the standard deviation of the averaged measurements. The list shows a part of the results.

Tested on: PfAP2-LT AP2 domain (GST-tagged)
Test: gcPBM binding intensity (ln(normalized median fluorescence intensity)); higher = stronger DNA binding
In short: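 Using an Agilent 4 × 180k array, primer-extended double-stranded 36-bp intergenic genomic probes and negative controls were exposed for 1 h to GST-fused P. falciparum DNA-binding domains expressed in E. coli. Binding was carried out in 1× PBS with 1% milk, 0.2 mg/ml BSA, 0.5% salmon testes DNA and 0.03% Triton X-100, and protein was detected with Alexa488 anti-GST antibody and a 488 nm scan. Binding intensity is the highest Masliner-normalised natural-log median intensity across replicate spots of either probe orientation.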

Row | Sequence | gcPBM binding intensity (ln)
1 | ATAATATATTTAATCATACACACATTTATGTACCTA [CACACA_site1719] | 9.06 ± 0.45
2 | AAAAATAAAGGGTGTGCACACAAAAATATATATATA [CACACA_site1727] | 9.7 ± 0.43
3 | TTTTTTTTTAAAACATAATAAAAAATAAAACAACCT [GTGCAC_negctrl_site92] | 8.35 ± 0.4
4 | CAAAAATAATAGAATACATGCAAAAATAAATGTATA [TGCATGCA_site196] | 8.96 ± 0.42
5 | TTTAATTTTTAATCAGTGCAATATTATATAATATAT | 8.48 ± 0.35
6 | TACAATAATGATTGTTGTACATTATTGATATTTAAA [XGTACX_site2940] | 8.44 ± 0.43
7 | AAAAAAAAACAGAAAACACACAAATTATCTTAGAAT [CACACA_site309] | 8.97 ± 0.47
8 | TCATTTTAATTAAAAGTGCAAAAAATAATATAACTA [GTGCAC_site9968] | 8.51 ± 0.39
9 | ATTAATTCGTTTTGTACACACATAATGAATAATTTA [CACACA_site2235] | 8.94 ± 0.28
10 | TATATGAAATATTATGCACACAATATATAATATGAT [CACACA_site936] | 9.07 ± 0.38
11 | AATAATTCATCATATGCACACACAATACCAAAATGT [CACACA_site7945] | 9.42 ± 0.33
12 | ATATATATATATATATGTACATATATATTGTTGATC [XGTACX_site8893] | 9.73 ± 0.23
13 | ACATATTATTCAAGTGCACACTTTATATTTATGATT [CACACA_site3295] | 9.12 ± 0.37
14 | ATTTAATTCGTACATACACACGCACATATATATATA [CACACA_site8415] | 9.39 ± 0.11
15 | TTTATTTTGTTTATGGTGCATTTTATGTAAATATAT | 8.77 ± 0.33
16 | AAAATATATTATTATTGTACATATATTTTCATTTAC [XGTACX_site4593] | 8.87 ± 0.47
17 | TAAATATATTTATAAGCACACACTAATAAACCCACA [CACACA_site390] | 9.3 ± 0.3
18 | AATTTTTATACGGATACACACAAAAAAAAATAAAAA [CACACA_site897] | 8.79 ± 0.57
19 | AAGGCATATATAATTTGTACATATTAAGAATTAGAT [XGTACX_site8660] | 8.79 ± 0.44
20 | TGAAATAAAATTATTTGTACATATCGGAAAAAAAAA [XGTACX_site7131] | 8.38 ± 0.49
21 | TTTTTTGAAAATAAATGTACGAATTTTATATTTAAA [XGTACX_site2768] | 7.95 ± 0.32
22 | AAGAAAATAAAAAGGTAAATATGTATAAATAAATAA [TGCATGCA_negctrl_site88] | 8.71 ± 0.47
23 | GATACAGATGGACACACACACATACATAAATACATA [CACACA_site5833] | 9.96 ± 0.49
24 | AAATTACCCATCCATACACACATATTTTTTTTAATT [CACACA_site2189] | 9.02 ± 0.32
25 | AATAAATAAATAAATAAATAAATATATATATATATA [GTGCAC_negctrl_site330] | 9.01 ± 0.33
